Screen size: about 360,000 compounds; about 7,500 (2.1%) were called active. This list was built around the results that the source calls inconclusive (neither active nor inactive); the mix of calls is not that of the screen. The call rests on the fitted dose curve; in most records, active means well fitted cell-killing curve with a large enough effect; inconclusive means small, poorly fitted or top-dose-only effect, or effect the other way, or another doubt; inactive means no such curve, though single readings can be large or run the other way. No potency is given beside an inconclusive call; the fits are too rough.
Assay: qHTS for induction of synthetic lethality in tumor cells producing 2HG: qHTS for the HT-1080-IDH1KD cell line;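 on activity, negative = toxicity: 0% = DMSO wells and -100% = cell-free medium wells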
Conditions: HT-1080 IDH1 knockdown viability, ATP luminescence, 48 h; activity, negative = toxicity: at 46.1 µM (top of the series) unless noted
Procedure, shortened: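 In this qHTS, HT-1080 cells depleted of IDH1 are exposed for 48 h at 37 °C to compound titrations. Toxicity is scored from CellTiter-Glo luminescence, with DMSO as full viability and medium alone as none.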
In the case of `CCOC(=O)c1ccc(NC(=O)CN2C(=O)NC3(CCCCCC3)C2=O)cc1`, the Potency is reported as inconclusive [cytotoxic, single point]. For `COc1ccc(C2/C=C\CN(C(=O)OCc3ccccc3)CC(=O)N2Cc2ccc(F)cc2)cc1` (stereo not drawn), the Potency was inconclusive [cytotoxic, partial curve]. With `O=S1(=O)NC[C@]23C[C@H](c4ccc(F)cc4)[C@@H](C[C@@H]21)O3` the “activity, negative = toxicity” value was inactive: 8.43%. With `CCOC(=O)[C@H]1[C@H]2COc3ccc(C)cc3[C@@H]2N2C(=O)c3ccc(C)cc3NC(=O)[C@@]12C` the “activity, negative = toxicity” value was inactive: -4.34%. For `COc1cc(NC(=O)c2ccc(OC)c([N+](=O)[O-])c2)ccc1NC(=O)c1ccco1`, the Potency was inconclusive [cytotoxic, single point]. For `CNC(=S)N1CCC(n2cnc3ccccc32)CC1`, the Potency was inconclusive [rising, single point]. For `O=C(CCl)N1CCN(S(=O)(=O)c2ccc3ccccc3c2)CC1`, the Potency was inconclusive [cytotoxic, single point]. With `CN1CCN(CC(=O)N2c3ccccc3C(C)(c3ccccc3)CC2(C)C)CC1` (stereo not drawn) the Potency was inconclusive [cytotoxic, partial curve]. In the case of `Cc1ccc(S(=O)(=O)N2CCCC2)cc1C(=O)Nc1ccc(-n2cnnn2)cc1`, the “activity, negative = toxicity” value is reported as inactive: -0.864%. In the case of `CC(C)Cn1c(N)c(C(=O)COC(=O)c2ccc(F)cc2)c(=O)n(C)c1=O`, the “activity, negative = toxicity” value is reported as inactive: -11.9%. With `O=C(Nc1ccn(CCCN(CCCn2ccc(NC(=O)OCc3ccccc3)nc2=O)CCc2cc3ccccc3[nH]2)c(=O)n1)OCc1ccccc1` the Potency was active: 18.4 µM. For `COc1cc(OCc2ccc(C)cc2)ccc1CNC[C@H]1O[C@@H](n2cnc(C(N)=O)n2)[C@H](O)[C@@H]1O`, the “activity, negative = toxicity” value was inactive: 5.44%. With `O=C(N/N=C/c1ccccc1O)NC12CC3CC(CC(C3)C1)C2` the Potency was inconclusive [cytotoxic, single point]. With `COc1cccc(OCc2cc(C(=O)N3CCC(c4ccncc4)CC3)no2)c1` the Potency was inconclusive [cytotoxic, single point]. With `Cc1ccc(S(=O)(=O)Cn2nnnc2C(CC(C)C)N2CCN(C3CCCC3)CC2)cc1` (stereo not drawn) the “activity, negative = toxicity” value was inactive: -0.519%. With `COc1ccc(NC(=O)c2cc3ccccc3cc2OC)cc1` the Potency was active: 16.4 µM. For `CCOC(=O)c1sc(NC(=O)CCN2CCN(CC)CC2)c(C(=O)OCC)c1C`, the Potency was active: 18.4 µM. With `O=C(CN1CCC(c2nc3ccccc3s2)CC1)NCc1cccs1` the Potency was inconclusive [cytotoxic, partial curve]. With `O=C(Nc1ccccc1N1CCN(C(=O)c2ccccc2)CC1)c1cc2ccccc2o1` the “activity, negative = toxicity” value was inactive: 4.53%. In the case of `CCCCC(CC)COC(=O)C(C#N)=C(c1ccccc1)c1ccccc1` (stereo not drawn), the Potency is reported as inconclusive [cytotoxic, single point]. In the case of `Nc1c2c(nc3ccccc13)CCCC2`, the Potency is reported as “inactive”. For `CCSc1ccccc1C(=O)N1CCN(c2ccccc2F)CC1`, the Potency was inconclusive [cytotoxic, single point]. With `Nc1nn(-c2ccccc2)c(N)c1N=Nc1ccccc1F` the Potency was active: 5.8 µM. In the case of `Cc1ccc(NC(=O)c2ccc(N3CCCC3=O)cc2)cc1S(=O)(=O)N1CCCCC1`, the “activity, negative = toxicity” value is reported as inactive: 11.3%. In the case of `OC(c1ccc(F)c(F)c1)c1nc(-c2ccc3ccccc3c2)cs1` (stereo not drawn), the Potency is reported as inconclusive [cytotoxic, single point]. With `COc1ccc(C=O)c(-c2c(-c3ccccc3OC)sc3ccccc23)c1` the Potency was inconclusive [cytotoxic, partial curve]. For `Cc1ncc(CO)c(/C=N/NC(=O)c2cccc(S(=O)(=O)N3CCCC3)c2)c1O`, the Potency was inconclusive [cytotoxic, single point]. For `Cc1ccc(CNC(=O)CCCc2cn(C)c3ccccc23)cc1`, the “activity, negative = toxicity” value was inactive: -10.7%. For `Clc1ccc2nc(-c3ccccc3)nc(C(Cl)Cl)c2c1`, the Potency was active: 7.31 µM. For `CCOc1cc(/C=N/NC(=O)Nc2ccccc2)ccc1O`, the activity, negative = toxicity was inconclusive: -30.7% [cytotoxic]. With `Cc1nc(N)sc1-c1csc(Nc2ccc(Cl)cn2)n1` the Potency was inconclusive [cytotoxic, single point]. With `COCC(=O)N/N=C\c1ccccc1OC/C=C/c1ccccc1` the Potency was inconclusive [cytotoxic, single point]. With `CCCCOC(=O)NC1CCc2cc(OC)c(OC)c(OC)c2-c2ccc(SC)c(=O)cc21` (stereo not drawn) the Potency was active: 0.0092 µM. For `CN1/C(=C\C=C2/C(=O)Oc3ccccc3C2=O)C(C)(C)c2ccccc21`, the Potency was inconclusive [cytotoxic, single point]. With `O=C1OC(Nc2ccc3c(c2)OCO3)c2ccccc21` (stereo not drawn) the Potency was active: 17.8 µM. With `Cc1ccc(N=Nc2ccc(O)c3ncccc23)cc1` the Potency was active: 1.64 µM. For `CCC(CC)c1nn2c(N)c(/C=C3\C=Nc4ccccc43)c(=O)nc2s1`, the “activity, negative = toxicity” value was inactive: -6.26%. In the case of `CCCNc1nc2c(c(=O)n(C)c(=O)n2C)n1Cc1cccc(C)c1`, the “activity, negative = toxicity” value is reported as inactive: -8.24%. In the case of `CC1(C)CC(=O)C2=C(C1)N=C1c3ccccc3C(=O)C1C2c1ccc(Cl)cc1` (stereo not drawn), the Potency is reported as inconclusive [cytotoxic, single point]. For `COc1ccccc1NC(=O)c1ccc(Br)c(S(=O)(=O)N2CCCC2)c1`, the Potency was inconclusive [cytotoxic, partial curve]. For `Cc1ccc(-n2nnnc2Sc2ccc(S(=O)(=O)NCCN(C)C)cc2[N+](=O)[O-])cc1`, the Potency was active: 23.1 µM. With `COc1cc(CNC(=O)Nc2nc(C(N)Cc3ccc(Cl)cc3)cs2)cc(OC)c1OC` (stereo not drawn) the Potency was inconclusive [cytotoxic, full curve]. In the case of `CSc1nc(-c2ccccc2)nn1C(=O)c1ccccc1`, the “activity, negative = toxicity” value is reported as inactive: 3.37%. For `CC(Nc1ccccc1N1CCCCC1)C(=O)N1CCc2ccccc21` (stereo not drawn), the “activity, negative = toxicity” value was inactive: -8.59%. In the case of `CCOC(=O)C1C(=O)C=C(c2ccc(C)cc2)CC1c1ccc([N+](=O)[O-])cc1` (stereo not drawn), the “activity, negative = toxicity” value is reported as inactive: 5.31%. In the case of `O=C1NC[C@H](Cc2ccccc2)N(C[C@H]2CCCN2C[C@H](Cc2ccccc2)N2C[C@H](Cc3ccc(O)cc3)N(CC3CCCCCC3)C(=O)C2=O)C1=O`, the Potency is reported as inconclusive [cytotoxic, single point]. In the case of `O=[N+]([O-])c1ccc(Cl)c(CN2CCC(O)CC2)c1`, the “activity, negative = toxicity” value is reported as inactive: 6.61%. In the case of `COc1ccc([C@H]2C[C@H](O)[C@@H](n3cc(-c4ccc(F)cc4)nn3)CN2Cc2cccs2)cc1`, the Potency is reported as active: 4.61 µM. In the case of `CCN1C/C(=C/c2ccc(N3CCOCC3)cc2)C(=O)/C(=C/c2ccc(N3CCOCC3)cc2)C1`, the Potency is reported as active: 20.6 µM. In the case of `CCOC(=O)C1=CCN(S(=O)(=O)c2ccc(Br)cc2)C1c1cccc(C)c1` (stereo not drawn), the Potency is reported as inconclusive [cytotoxic, single point]. For `Cc1nc2ccccn2c1-c1ccnc(SCc2ccc(Cl)cc2)n1`, the activity, negative = toxicity was inconclusive: -31.2% [cytotoxic]. For `Cc1cc(=O)n2c3ccccc3n(CC(O)CN3CCCCC3)c2c1C#N` (stereo not drawn), the Potency was inconclusive [cytotoxic, single point]. With `CC(=O)Oc1ccc(-c2csc(Nc3ccccn3)n2)cc1` the Potency was inconclusive [cytotoxic, single point]. In the case of `CC1(Cc2ccc(Cl)cc2)C(=O)Nc2ccc(-c3ccc(F)c(Cl)c3)cc21` (stereo not drawn), the Potency is reported as inconclusive [cytotoxic, single point]. With `CNC(=S)N(CCc1c(C)[nH]c2ccc(F)cc12)Cc1cccnc1` the “activity, negative = toxicity” value was inactive: -4.37%. With `CCN(CC)c1ccc(NC(=O)c2cccc(OC)c2)c(C)c1` the Potency was inconclusive [cytotoxic, single point]. In the case of `O=C(NCc1ccccc1)C1C(c2ccc3c(c2)OCO3)=Nc2ccccc2N1C(=O)c1ccco1` (stereo not drawn), the Potency is reported as active: 8.2 µM. For `COc1ccc(NC(=O)C(C/C=C(/C)Cl)C(C)=O)cc1` (stereo not drawn), the Potency was inconclusive [cytotoxic, single point]. In the case of `Nc1nc(N)c2c(ccc3nccc32)[nH]1`, the Potency is reported as active: 4.61 µM. With `O=C1NC[C@H](CCCCN2CCN(CCc3ccccc3)C(=O)C2=O)N(CCc2ccc(O)cc2)C1=O` the “activity, negative = toxicity” value was inactive: 6.66%. With `O=c1cc(N2CCCCC2)c(-c2ccccc2)nn1Cc1ccccc1` the Potency was inconclusive [cytotoxic, single point]. For `CC(C)(C)c1ccc(C(=O)N2CCC2(C)C(=O)NCc2cccs2)cc1` (stereo not drawn), the Potency was inconclusive [cytotoxic, partial curve]. With `FC(F)(F)c1ccccc1Cc1c(C2CCCCC2)nc2c3ccccc3ccn12` the Potency was inconclusive [cytotoxic, single point]. In the case of `CCN(CC)CCCCN1c2ccccc2Sc2ccccc21`, the Potency is reported as active: 23.1 µM. For `CCCc1nnc(NC(=O)c2nc(S(=O)(=O)Cc3ccc(C)cc3)ncc2Cl)s1`, the Potency was inconclusive [cytotoxic, single point]. With `COc1cc2c(cc1OC)C(c1ccccc1)N(C(=O)CCl)CC2` (stereo not drawn) the Potency was inconclusive [cytotoxic, single point]. For `Cc1ccc(C#CC[N+]2(CC#Cc3ccc(C)cc3)CCCCC2)cc1`, the Potency was active: 14.6 µM. With `COc1ccc2oc3cc(NCCN(C)C)ccc3c(=O)c2c1` the Potency was inconclusive [cytotoxic, single point]. For `O=[N+]([O-])c1ccc(NN=Cc2cccc3ccccc23)cc1`, the “activity, negative = toxicity” value was inactive: -6.62%. In the case of `OC(CNCc1ccc(Cl)cc1)(c1ccccc1)c1ccc(F)cc1` (stereo not drawn), the Potency is reported as inconclusive [cytotoxic, single point]. In the case of `COc1ccccc1C(=O)NCCC(=O)NCCCSc1ccccc1`, the “activity, negative = toxicity” value is reported as inactive: -5.47%. In the case of `N#Cc1ccc(NC(=O)Cn2cnc([N+](=O)[O-])c2)cc1`, the “activity, negative = toxicity” value is reported as inactive: 11.1%. With `COc1cccc(/C=C(/C(=O)OCC(=O)NCC2CCCO2)c2ccccc2)c1` (stereo not drawn) the activity, negative = toxicity was inconclusive: -14.5% [cytotoxic].

From PubChem BioAssay AID686971 (National Center for Advancing Translational Sciences (NCATS), 2013)
Potency means the concentration at half of the fitted maximal effect; tags describe the fitted curve by direction and shape.
